{
  "source": "the supplement of paper PMC3334620",
  "note": "Over roughly 33,000 sequences, “E-score (-0.5 to 0.5)” has its median near -0.054; the highest 2% begin near 0.35. The list shows a part of the results.",
  "data": [
    {"target": "T1, Stb5 (UniProt P38699)", "T1 sequence": "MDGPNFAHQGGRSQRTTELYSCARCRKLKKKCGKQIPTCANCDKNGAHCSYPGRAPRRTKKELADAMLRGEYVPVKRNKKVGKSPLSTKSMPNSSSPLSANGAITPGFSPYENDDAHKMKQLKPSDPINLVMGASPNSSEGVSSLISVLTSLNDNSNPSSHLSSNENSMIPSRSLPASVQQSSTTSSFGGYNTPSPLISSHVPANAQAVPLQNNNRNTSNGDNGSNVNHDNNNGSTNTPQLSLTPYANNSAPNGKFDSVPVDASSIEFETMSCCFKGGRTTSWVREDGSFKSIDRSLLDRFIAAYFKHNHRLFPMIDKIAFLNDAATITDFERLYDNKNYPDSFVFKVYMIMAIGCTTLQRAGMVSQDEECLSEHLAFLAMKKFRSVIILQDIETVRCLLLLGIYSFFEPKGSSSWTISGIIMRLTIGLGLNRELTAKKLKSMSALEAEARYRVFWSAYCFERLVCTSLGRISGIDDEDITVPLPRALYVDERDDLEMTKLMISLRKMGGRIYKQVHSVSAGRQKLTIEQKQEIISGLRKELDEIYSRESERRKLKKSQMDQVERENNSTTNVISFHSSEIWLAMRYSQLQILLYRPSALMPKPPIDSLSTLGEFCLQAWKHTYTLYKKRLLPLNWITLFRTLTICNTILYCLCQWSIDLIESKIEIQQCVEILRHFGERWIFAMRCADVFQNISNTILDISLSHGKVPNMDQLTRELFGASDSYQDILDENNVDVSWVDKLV", "assay": "PBM E-score (8-mer binding enrichment) (E-score (-0.5 to 0.5)); higher = stronger / more preferred TF binding; most listed sequences are background and not binding sites", "details": "protein concentration: 200 nM; construct: GST-full length", "outline": "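For each ungapped eight-base word taken together with its reverse complement, the Universal PBM Analysis Suite assigned an E-score. Binding data came from GST-tagged yeast transcription factors, applied at about 100-200 nM, on universal all-10-mer Agilent arrays made double-stranded by primer extension. Fluorescent anti-GST marked bound protein, and scans were normalised with masliner.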", "values": [
      {"sequence": "ATAAAGCC", "PBM E-score": 0.359},
      {"sequence": "GTTCGAGA", "PBM E-score": -0.072},
      {"sequence": "AATTGCGG", "PBM E-score": 0.139},
      {"sequence": "AATAGCCT", "PBM E-score": -0.182},
      {"sequence": "ACAGCATG", "PBM E-score": 0.0379},
      {"sequence": "GCTTTAGA", "PBM E-score": -0.0225},
      {"sequence": "AGGATATA", "PBM E-score": -0.0284},
      {"sequence": "CCAGTGTA", "PBM E-score": -0.188},
      {"sequence": "CACACATC", "PBM E-score": -0.15},
      {"sequence": "CCATCTGA", "PBM E-score": -0.198},
      {"sequence": "CAAGCAAA", "PBM E-score": -0.17},
      {"sequence": "TAAGCTTA", "PBM E-score": -0.105},
      {"sequence": "TTCAAAAA", "PBM E-score": -0.155},
      {"sequence": "TGGAGACA", "PBM E-score": -0.254},
      {"sequence": "GTCGGACA", "PBM E-score": 0.385},
      {"sequence": "TCAGTTAA", "PBM E-score": -0.0196},
      {"sequence": "ACTGCATG", "PBM E-score": -0.302},
      {"sequence": "ACCTCGCC", "PBM E-score": -0.0314},
      {"sequence": "AAAACTGG", "PBM E-score": 0.0365},
      {"sequence": "TATACATA", "PBM E-score": -0.127},
      {"sequence": "CGAAGCAC", "PBM E-score": -0.0541},
      {"sequence": "ACAGCACT", "PBM E-score": -0.196},
      {"sequence": "CAATGTTA", "PBM E-score": -0.219},
      {"sequence": "CGGGACAC", "PBM E-score": 0.195},
      {"sequence": "GCTTTCTA", "PBM E-score": 0.0335},
      {"sequence": "CGTCGTTA", "PBM E-score": 0.0819},
      {"sequence": "AACTAATT", "PBM E-score": -0.029},
      {"sequence": "CACACAAG", "PBM E-score": -0.231},
      {"sequence": "GGCGACCA", "PBM E-score": -0.0929},
      {"sequence": "GGCTGTTA", "PBM E-score": 0.0531},
      {"sequence": "GTAGAACA", "PBM E-score": -0.0782},
      {"sequence": "CGTCGAGC", "PBM E-score": 0.0731},
      {"sequence": "TAACCCAA", "PBM E-score": -0.106},
      {"sequence": "TCATGGCA", "PBM E-score": -0.0568},
      {"sequence": "AGTAAGGA", "PBM E-score": -0.2},
      {"sequence": "CCCAATTC", "PBM E-score": -0.123},
      {"sequence": "GGCAGGGA", "PBM E-score": -0.241},
      {"sequence": "CAATCGCG", "PBM E-score": 0.00418},
      {"sequence": "ACGCGACC", "PBM E-score": -0.121},
      {"sequence": "ACGCCTGA", "PBM E-score": -0.11},
      {"sequence": "GTGACTTA", "PBM E-score": -0.139},
      {"sequence": "CATTTGGC", "PBM E-score": -0.247},
      {"sequence": "TATGCGCA", "PBM E-score": -0.115},
      {"sequence": "AAGGTAAG", "PBM E-score": -0.115},
      {"sequence": "ATGACTTC", "PBM E-score": -0.221},
      {"sequence": "GACGGCAA", "PBM E-score": 0.285},
      {"sequence": "CGCAAGCC", "PBM E-score": -0.00333},
      {"sequence": "ACTTTCCT", "PBM E-score": -0.128},
      {"sequence": "AGTGCGTG", "PBM E-score": -0.1},
      {"sequence": "GCATCGCC", "PBM E-score": -0.00466},
      {"sequence": "GACCGAAC", "PBM E-score": 0.145},
      {"sequence": "ATGAGACA", "PBM E-score": -0.132},
      {"sequence": "GGCAAAGA", "PBM E-score": -0.0708},
      {"sequence": "GAGTGGCC", "PBM E-score": -0.0356},
      {"sequence": "AATGGTTC", "PBM E-score": 0.00524},
      {"sequence": "ACACGTCG", "PBM E-score": 0.0556},
      {"sequence": "AACCGAGT", "PBM E-score": -0.0243},
      {"sequence": "CAAAGCTG", "PBM E-score": -0.12},
      {"sequence": "AAGGTTAT", "PBM E-score": 0.0152},
      {"sequence": "CCTGCGTA", "PBM E-score": -0.0568},
      {"sequence": "AACTGTTA", "PBM E-score": -0.0903},
      {"sequence": "AGTAGTAC", "PBM E-score": 0.00883},
      {"sequence": "CAATAAGC", "PBM E-score": 0.153},
      {"sequence": "GGCATACC", "PBM E-score": 0.0408},
      {"sequence": "ATATGAGC", "PBM E-score": -0.113},
      {"sequence": "CACCCATG", "PBM E-score": -0.068},
      {"sequence": "CACTACTA", "PBM E-score": -0.117},
      {"sequence": "ATTCGCAA", "PBM E-score": -0.192},
      {"sequence": "AAAGGCAA", "PBM E-score": -0.151},
      {"sequence": "GGGGTCTA", "PBM E-score": 0.165},
      {"sequence": "GTATCCCA", "PBM E-score": -0.0728},
      {"sequence": "GCATAGCA", "PBM E-score": -0.0674},
      {"sequence": "AGGTGCAC", "PBM E-score": -0.177},
      {"sequence": "AAGTTTAT", "PBM E-score": 0.134},
      {"sequence": "GACCTTGC", "PBM E-score": -0.0867},
      {"sequence": "CCGCAAGA", "PBM E-score": 0.11},
      {"sequence": "AGATCATA", "PBM E-score": 0.0528},
      {"sequence": "ACAGAAAA", "PBM E-score": -0.0129},
      {"sequence": "AAACTCCT", "PBM E-score": 0.0448},
      {"sequence": "AATATAGA", "PBM E-score": 0.0314},
      {"sequence": "TCGATTCA", "PBM E-score": -0.0647},
      {"sequence": "CCTCATCA", "PBM E-score": -0.276},
      {"sequence": "ATCTCTCG", "PBM E-score": -0.00656},
      {"sequence": "GTTACAGA", "PBM E-score": -0.242},
      {"sequence": "ATACGAAT", "PBM E-score": -0.191},
      {"sequence": "CCCACGCC", "PBM E-score": -0.111}
    ]}
  ]
}
